# Measurements: PMC4402527
# The chains behind the UniProt entries cited, without tags or fusion partners.
# UniProt P29562: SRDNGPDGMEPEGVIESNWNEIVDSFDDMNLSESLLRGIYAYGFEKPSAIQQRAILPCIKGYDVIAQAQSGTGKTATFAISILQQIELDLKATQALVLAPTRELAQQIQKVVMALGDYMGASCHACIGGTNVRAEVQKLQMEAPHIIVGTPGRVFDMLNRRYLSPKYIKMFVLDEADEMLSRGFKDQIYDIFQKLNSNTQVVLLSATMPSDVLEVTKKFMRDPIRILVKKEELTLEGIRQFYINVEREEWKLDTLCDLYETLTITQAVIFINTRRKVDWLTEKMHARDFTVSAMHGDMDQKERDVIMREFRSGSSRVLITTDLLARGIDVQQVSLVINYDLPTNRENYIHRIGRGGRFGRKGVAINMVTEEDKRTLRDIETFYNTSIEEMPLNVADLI
# UniProt P41035: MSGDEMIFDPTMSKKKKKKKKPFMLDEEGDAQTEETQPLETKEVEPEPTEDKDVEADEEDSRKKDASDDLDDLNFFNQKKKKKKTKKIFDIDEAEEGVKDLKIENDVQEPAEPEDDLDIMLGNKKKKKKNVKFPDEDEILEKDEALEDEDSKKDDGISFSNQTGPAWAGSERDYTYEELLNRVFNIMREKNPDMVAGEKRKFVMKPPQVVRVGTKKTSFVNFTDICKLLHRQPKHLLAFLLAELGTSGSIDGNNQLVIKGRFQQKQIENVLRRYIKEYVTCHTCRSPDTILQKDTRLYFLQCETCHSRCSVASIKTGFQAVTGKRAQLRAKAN
# UniProt P60842: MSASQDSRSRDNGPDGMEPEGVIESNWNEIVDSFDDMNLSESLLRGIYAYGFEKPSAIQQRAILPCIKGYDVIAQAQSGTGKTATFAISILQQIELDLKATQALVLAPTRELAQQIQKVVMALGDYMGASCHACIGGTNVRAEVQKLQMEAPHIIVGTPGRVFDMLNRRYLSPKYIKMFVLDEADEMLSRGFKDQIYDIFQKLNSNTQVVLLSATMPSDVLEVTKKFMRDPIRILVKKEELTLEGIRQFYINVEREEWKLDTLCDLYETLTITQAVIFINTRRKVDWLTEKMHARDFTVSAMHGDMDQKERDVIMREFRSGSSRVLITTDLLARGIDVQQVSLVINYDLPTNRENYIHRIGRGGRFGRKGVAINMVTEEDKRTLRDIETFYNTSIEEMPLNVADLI
# UniProt P20042: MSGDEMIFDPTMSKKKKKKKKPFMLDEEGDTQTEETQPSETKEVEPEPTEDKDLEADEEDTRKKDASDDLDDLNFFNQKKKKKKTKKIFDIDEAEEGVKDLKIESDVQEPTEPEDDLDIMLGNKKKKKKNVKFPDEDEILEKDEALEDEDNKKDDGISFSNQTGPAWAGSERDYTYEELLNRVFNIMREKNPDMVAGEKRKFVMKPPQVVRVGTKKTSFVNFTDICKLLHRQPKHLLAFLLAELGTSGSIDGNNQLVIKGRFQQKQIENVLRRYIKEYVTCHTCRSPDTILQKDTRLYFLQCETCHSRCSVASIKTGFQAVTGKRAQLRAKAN
# Changes are numbered by the printed parent chain. No constants are given. Whether binding was seen depends on the method and setting. For some assays here: In cells and extracts the contact can be indirect. Some results given as binding are weak or reduced against the parent protein; the word gives no strength. Sequences can lack the tags named with a protein.
# Experiments:
# [1] = target: T1, His-DAP5 WT (48-907) (human) (UniProt P78344); experiment: pull-down; 600 ng His-DAP5 added to 30 μl nuclease treated RRL, 10 min at 30°C; Ni-NTA beads 3 h at 4°C in IP buffer (25 mM HEPES-KOH pH 7.3, 20 mM KCl, 75 mM KOAc, 2 mM MgCl2, 10 mM imidazole, 0.3% CHAPS); western blot; only the target purified
# T1 sequence: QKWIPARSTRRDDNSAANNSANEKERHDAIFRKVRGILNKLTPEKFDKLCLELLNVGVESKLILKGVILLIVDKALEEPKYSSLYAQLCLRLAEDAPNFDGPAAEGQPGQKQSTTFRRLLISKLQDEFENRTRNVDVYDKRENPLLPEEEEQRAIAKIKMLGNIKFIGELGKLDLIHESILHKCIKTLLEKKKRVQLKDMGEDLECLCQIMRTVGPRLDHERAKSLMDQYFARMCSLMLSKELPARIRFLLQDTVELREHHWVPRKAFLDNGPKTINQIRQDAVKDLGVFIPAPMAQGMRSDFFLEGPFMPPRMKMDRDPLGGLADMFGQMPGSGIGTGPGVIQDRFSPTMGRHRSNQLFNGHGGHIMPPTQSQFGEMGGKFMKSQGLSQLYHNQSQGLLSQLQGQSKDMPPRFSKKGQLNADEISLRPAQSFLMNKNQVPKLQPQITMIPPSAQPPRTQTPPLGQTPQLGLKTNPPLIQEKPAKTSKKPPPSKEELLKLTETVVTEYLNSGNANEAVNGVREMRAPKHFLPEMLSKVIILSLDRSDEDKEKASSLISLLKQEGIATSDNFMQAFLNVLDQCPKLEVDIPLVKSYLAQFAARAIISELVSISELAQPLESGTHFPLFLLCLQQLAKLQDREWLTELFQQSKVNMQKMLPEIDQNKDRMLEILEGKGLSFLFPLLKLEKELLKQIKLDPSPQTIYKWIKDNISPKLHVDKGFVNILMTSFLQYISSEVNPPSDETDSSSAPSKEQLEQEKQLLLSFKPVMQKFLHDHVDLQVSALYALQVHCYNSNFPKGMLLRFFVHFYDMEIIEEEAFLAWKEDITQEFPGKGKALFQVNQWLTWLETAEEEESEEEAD
# [2] = target: T2, His-DAP5 N86A mutant (human) (UniProt P78344); experiment: as above
# T2 sequence: T1 sequence with N39A
# [3] = target: T2, His-DAP5 N86A mutant (human); experiment: condition: 100 μg eIF4AI (~2-fold molar excess) in 100 μl; pull-down; 100 μg His-DAP5 with 25 μl Ni-NTA Superflow resin and 100 μg purified eIF4AI (~2-fold molar excess), 30 min on ice, 25 mM Tris-HCl pH 8.0, 150 mM NaCl, 60 mM imidazole, 1 mM DTT, 5% glycerol; Coomassie staining; both purified
# [4] = target: T1, His-DAP5 WT (48-907) (human); experiment: pull-down; 100 μg His-DAP5 with 25 μl Ni-NTA Superflow resin and 100 μg purified eIF4AI (~2-fold molar excess), 30 min on ice, 25 mM Tris-HCl pH 8.0, 150 mM NaCl, 60 mM imidazole, 1 mM DTT, 5% glycerol; Coomassie staining; both purified
# Flag-DAP5 N86A (human) = target: T3, Flag-DAP5 N86A (human) (UniProt P78344); experiment: co-IP; HEK293T transfected 24 h with Flag-tagged DAP5 constructs; lysis in buffer B (20 mM HEPES-KOH pH 7.6, 100 mM KCl, 0.5 mM EDTA, 0.4% NP-40, 20% glycerol); anti-Flag-conjugated beads, elution with Flag peptide; western blot of endogenous factors
# T3 sequence: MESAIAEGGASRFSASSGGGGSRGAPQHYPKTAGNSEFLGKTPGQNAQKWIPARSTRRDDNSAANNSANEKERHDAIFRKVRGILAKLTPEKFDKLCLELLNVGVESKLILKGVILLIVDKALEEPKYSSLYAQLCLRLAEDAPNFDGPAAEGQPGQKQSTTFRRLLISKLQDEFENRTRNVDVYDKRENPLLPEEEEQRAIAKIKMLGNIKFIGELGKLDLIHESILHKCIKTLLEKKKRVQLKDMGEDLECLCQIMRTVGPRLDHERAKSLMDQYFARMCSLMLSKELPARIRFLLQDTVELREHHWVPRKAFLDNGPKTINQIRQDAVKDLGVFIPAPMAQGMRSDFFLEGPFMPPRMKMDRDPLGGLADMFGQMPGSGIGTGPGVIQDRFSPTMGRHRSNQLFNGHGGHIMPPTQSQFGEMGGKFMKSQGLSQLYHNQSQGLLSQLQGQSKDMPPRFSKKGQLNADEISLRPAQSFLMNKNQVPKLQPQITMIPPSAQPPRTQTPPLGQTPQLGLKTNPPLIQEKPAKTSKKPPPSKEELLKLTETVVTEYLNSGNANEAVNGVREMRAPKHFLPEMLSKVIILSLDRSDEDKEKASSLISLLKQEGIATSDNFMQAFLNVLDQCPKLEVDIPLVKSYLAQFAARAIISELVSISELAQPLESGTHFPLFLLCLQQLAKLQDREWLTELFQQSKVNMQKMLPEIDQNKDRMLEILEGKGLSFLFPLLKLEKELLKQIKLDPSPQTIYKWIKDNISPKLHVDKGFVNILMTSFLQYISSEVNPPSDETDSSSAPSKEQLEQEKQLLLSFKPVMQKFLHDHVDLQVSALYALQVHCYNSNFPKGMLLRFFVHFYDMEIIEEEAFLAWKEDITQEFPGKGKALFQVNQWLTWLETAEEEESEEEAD
# [5] = target: T4, Flag-DAP5 (wild type) (human) (UniProt P78344); experiment: as above
# T4 sequence: T3 sequence with A86N
Substance,binding [1],binding [2],also measured
eIF4AI of rabbit reticulocyte lysate (from UniProt P29562 1-398),binds,no binding,–
eIF2β of rabbit reticulocyte lysate (from UniProt P41035 1-333),binds,binds,–
purified eIF4AI (from UniProt P60842 1-406),–,–,binding [3]: no binding; binding [4]: binds
eIF2β (from UniProt P20042 1-333),–,–,binding (Flag-DAP5 N86A (human)): binds; binding [5]: binds
